# Measured values reported in the supplement of paper PMC8728848.
# Some of the results follow.
# B1: Epa1-NP-mutant-Y228A (Candida glabrata), Q6VBJ0 (protein)
# chain: MILNPALFLNKCVCIYTTLILLLLTNGGYATSSNDISLASKDPTTFPLGCSPDITTPKKGLSMELYSYDFRKKGSYPCWDAAYLDPNYPRTGYKSHRLLAKVDGVTGNINFYYHATKGCTPQLGHLPASYNYPKPLTMTNFTMLLYGYFRPKVTGFHTFTISADDLLFVNFGAGNAFDCCRRDSSADHFGNYQAYAIWGSKTAKDELTVHLDAGVYYPIRLFYNNREADGALSFTFKTESNENTVSDFSEYFFSLDDTEEGCPGLISYDSSCASVKTSKIIGIDYHTETPNENLVPITKTIYHLGIPCTGTTTTPLCGSGFYDPLANKCVTINTSSTSSVTKTTSHTTSKEVSFHSSISSQKTLIPKSIPSPYGPIKSQSIPTEMETSSEISSSEYAFSDVISTPSHSPYTKKHSSLNSSSYTSTVIHSLTSYSISQGIFSTSLSEQNITSKSSTDKFSTATSMSNNITQSSIIISQFSTNNENYTTTSMHTSSDKISTETLNNSISTTTSILFSNSSTILKNNTTIISSDKDTHYHPVNPTIVCSTNKTEIICASITQPSISNSNNHWSSSVLKFNSTTVRSTLPSSAGSNETSINVPFSSSTESNTSTSSTSTSNSKMVRSTLPSSAGSNETSISVPFSSSTESNTSTSSTSTSNSKMVRSTLPSSAGSNETSINVPFSSSTESNTSTSSTSTSNSKTVRSTPFSSAGIIMTSLSQRNNKSASSYASSNSKCYNTADSCRKVHSTPSYLLTSSYTSEGVDYDCSLVSTKLKINDTNCVNNKHTTKSCLKTSVTTTIPTLEIKTARKSSSNTIGLHSYPTSSPNKSISSAPIIGYISSFKTIKTASPSYQTSDLTTITTITSLNNPGSTAVENTHESNDKSRKTSSNDISSKHSVIKETKDAVESSNKSHQTNTLKCSSIIIASSSHNSYESLGGTTLTLTLSKVYSPQNNDTLPFLEISEVNPSRTVLPESSKMMQYLTSTEERNKTARNTIATNIVSISTFHFEGEGNAIRMGYTQLLLMLIGIIVMNIGT
# Legend:
# Assay in all cases: glycan array binding signal (z-score within array); higher = stronger binding
# Conditions in all cases: glycan notation: IUPAC condensed, linker removed; mutation: Y228A
# [1] = molecular target: Fuc(a1-2)[GalNAc(b1-3)]Gal
# Method in brief: (§1)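 Glycan array data were curated from 3228 arrays in the Consortium for Functional Glycomics database and kept only where the protein sequence was available. Glycan names were converted to IUPAC-condensed notation, and columns mapping to the same glycan were averaged. The binding signal is a within-array Z-score, averaged across arrays of the same protein sequence at different concentrations or buffers and across linkers. Negative Z-scores can be read as non-binding.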
# [2] = molecular target: Fuc(a1-3)GlcNAc
# Method in brief: as §1
# [3] = molecular target: Fuc(a1-3)[Gal(b1-4)]Glc6S
# Method in brief: as §1
# [4] = molecular target: Fuc(a1-3)[Gal(b1-4)]GlcNAc
# Method in brief: as §1
# [5] = molecular target: Fuc(a1-3)[Gal(b1-4)]GlcNAc(b1-2)Man
# Method in brief: as §1
# [6] = molecular target: Fuc(a1-3)[Gal(b1-4)]GlcNAc(b1-2)Man(a1-3)[Fuc(a1-3)[Gal(b1-4)]GlcNAc(b1-2)Man(a1-6)]Man(b1-4)GlcNAc(b1-4)GlcNAc
# Method in brief: as §1
# [7] = molecular target: Fuc(a1-3)[Gal(b1-4)]GlcNAc(b1-2)Man(a1-3)[Fuc(a1-3)[Gal(b1-4)]GlcNAc(b1-2)Man(a1-6)]Man(b1-4)GlcNAc(b1-4)[Fuc(a1-6)]GlcNAc
# Method in brief: as §1
# [8] = molecular target: Fuc(a1-3)[Gal(b1-4)]GlcNAc(b1-3)Gal(b1-3)[Fuc(a1-4)]GlcNAc
# Method in brief: as §1
# [9] = molecular target: Fuc(a1-3)[Gal(b1-4)]GlcNAc(b1-3)Gal(b1-4)[Fuc(a1-3)]GlcNAc
# Method in brief: as §1
# [10] = molecular target: Fuc(a1-3)[Gal(b1-4)]GlcNAc(b1-3)Gal(b1-4)[Fuc(a1-3)]GlcNAc(b1-3)Gal(b1-4)[Fuc(a1-3)]GlcNAc
# Method in brief: as §1
# [11] = molecular target: Fuc(a1-3)[Gal(b1-4)]GlcNAc(b1-3)GalNAc
# Method in brief: as §1
# [12] = molecular target: Fuc(a1-3)[Gal(b1-4)]GlcNAc(b1-6)GalNAc
# Method in brief: as §1
# [13] = molecular target: Fuc(a1-3)[Gal(b1-4)]GlcNAc(b1-6)[Gal(b1-3)GlcNAc(b1-3)]Gal(b1-4)Glc
# Method in brief: as §1
# [14] = molecular target: Fuc(a1-3)[Gal(b1-4)]GlcNAc6S
# Method in brief: as §1
# [15] = molecular target: Fuc(a1-3)[Gal3S(b1-4)]Glc
# Method in brief: as §1
# [16] = molecular target: Fuc(a1-3)[Gal3S(b1-4)]GlcNAc
# Method in brief: as §1
# [17] = molecular target: Fuc(a1-3)[Gal3S(b1-4)]GlcNAc6S
# Method in brief: as §1
# [18] = molecular target: Fuc(a1-3)[GalNAc(b1-4)]GlcNAc
# Method in brief: as §1
# [19] = molecular target: Fuc(a1-3)[GalNAc(b1-4)]GlcNAc6S
# Method in brief: as §1
# [20] = molecular target: Fuc(a1-4)GlcNAc
# Method in brief: as §1
# [21] = molecular target: Fuc(b1-3)GlcNAc
# Method in brief: as §1
# [22] = molecular target: Gal(a1-2)Gal
# Method in brief: as §1
# [23] = molecular target: Gal(a1-3)Gal
# Method in brief: as §1
# [24] = molecular target: Gal(a1-3)Gal(b1-3)GlcNAc
# Method in brief: as §1
# [25] = molecular target: Gal(a1-3)Gal(b1-3)GlcNAc(b1-2)Man
# Method in brief: as §1
# [26] = molecular target: Gal(a1-3)Gal(b1-3)GlcNAc(b1-2)Man(a1-3)[Gal(a1-3)Gal(b1-3)GlcNAc(b1-2)Man(a1-6)]Man(b1-4)GlcNAc(b1-4)GlcNAc
# Method in brief: as §1
# [27] = molecular target: Gal(a1-3)Gal(b1-3)GlcNAc(b1-3)GalNAc
# Method in brief: as §1
# [28] = molecular target: Gal(a1-3)Gal(b1-3)GlcNAc(b1-6)GalNAc
# Method in brief: as §1
# [29] = molecular target: Gal(a1-3)Gal(b1-3)[Fuc(a1-4)]GlcNAc(b1-2)Man(a1-3)[Gal(a1-3)Gal(b1-3)[Fuc(a1-4)]GlcNAc(b1-2)Man(a1-6)]Man(b1-4)GlcNAc(b1-4)GlcNAc
# Method in brief: as §1
# [30] = molecular target: Gal(a1-3)Gal(b1-4)Glc
# Method in brief: as §1
binder,measurement,setting,value
B1,glycan array binding signal (z-score),[1],-0.285
same,glycan array binding signal (z-score),[2],-0.263
same,glycan array binding signal (z-score),[3],0.101
same,glycan array binding signal (z-score),[4],-0.24
same,glycan array binding signal (z-score),[5],-0.215
same,glycan array binding signal (z-score),[6],-0.024
same,glycan array binding signal (z-score),[7],-0.302
same,glycan array binding signal (z-score),[8],-0.303
same,glycan array binding signal (z-score),[9],-0.214
same,glycan array binding signal (z-score),[10],-0.195
same,glycan array binding signal (z-score),[11],-0.25
same,glycan array binding signal (z-score),[12],-0.289
same,glycan array binding signal (z-score),[13],-0.025
same,glycan array binding signal (z-score),[14],-0.072
same,glycan array binding signal (z-score),[15],-0.172
same,glycan array binding signal (z-score),[16],-0.321
same,glycan array binding signal (z-score),[17],-0.115
same,glycan array binding signal (z-score),[18],-0.06
same,glycan array binding signal (z-score),[19],-0.376
same,glycan array binding signal (z-score),[20],-0.223
same,glycan array binding signal (z-score),[21],-0.104
same,glycan array binding signal (z-score),[22],-0.233
same,glycan array binding signal (z-score),[23],-0.155
same,glycan array binding signal (z-score),[24],-0.225
same,glycan array binding signal (z-score),[25],-0.108
same,glycan array binding signal (z-score),[26],-0.13
same,glycan array binding signal (z-score),[27],-0.083
same,glycan array binding signal (z-score),[28],0.018
same,glycan array binding signal (z-score),[29],-0.124
same,glycan array binding signal (z-score),[30],-0.176
